83 variants from the RNAGym collection of RNA variant scans (doi:10.1073/pnas.2313332121) can be followed below.

This sample is rich in variants without activity. Bounds are passed on as bounds.

B1: TPR 5TU (parent)
chain: GGAUCUUCUCGAUCUAACAAAAAAGACAAAUCUGCCACAAAGCUUGAGAGCAUCUUCGGAUGCAGAGGCGGCAGCCUUCGGUGGCGCGAUAGCGCCAACGUUCUCAACUAUGACACGCAAAACGCGUGCUCCGUUGAAUGGAGUUUAUCAUG

The data set covers variants of B1. Briefly: polymerase ribozyme fitness, log enrichment relative to wild type (log ratio); higher = more active; in vitro selection for triplet polymerase activity. In outline:
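Fitness measures genotype enrichment against wild-type enrichment on a logarithmic scale, with inverse-variance-weighted averaging of replicates. The logarithm is base 2, and genotypes were kept only with ≥10 input reads and ≥1 read per output in Illumina sequencing. The sequenced libraries came from one triplicate in vitro selection round, including frozen incubation at −7 °C, of PCR-built, transcribed mutant libraries of each subunit of a heterodimeric triplet polymerase ribozyme.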
As to C27U U31C U77G G126U U135A, the “polymerase ribozyme fitness (log ratio)” value is no more than -4.2. The figure for A26U U101G G112C is no more than -4.2. With C27U A37C A52C C87U G88C, the “polymerase ribozyme fitness (log ratio)” value is no more than -4.2. Regarding C27U C99G G133U G141A C149G, the “polymerase ribozyme fitness (log ratio)” value is no more than -4.2. Consider C27G A29G C95U, for which the “polymerase ribozyme fitness (log ratio)” value is no more than -4.2.

Consider A26U G50C G84A C118U, for which the “polymerase ribozyme fitness (log ratio)” value was no more than -4.2.

Consider A28G C54U C93A U127A, for which the “polymerase ribozyme fitness (log ratio)” value is no more than -4.2. The same measure for A28C G59A C87U: no more than -4.2. The figure for A26G C76A G94C is no more than -4.2; for A28C G86U A120G it is no more than -4.2.

Take C27A A40C C54G U61A U144C U146C U148G: the “polymerase ribozyme fitness (log ratio)” value is no more than -4.2. Consider A26U C51U C72U A73U C85A C99G G100C U111G, for which the “polymerase ribozyme fitness (log ratio)” value was no more than -4.2. The same measure for C27G C51U: -3.97; for C27A C38G C43U C85U G133A U144C: no more than -4.2. The figure for C27G A37C U44A U45A C57U G68A G83A A119U A120U A147G is no more than -4.2. C27A G71U: the “polymerase ribozyme fitness (log ratio)” value is no more than -4.2. The same measure for A26U G65A A66U U77C C96U A106U A107U C132U U139A G143C U148A: no more than -4.2; for A28U A37C U55A U77G C85A C87G G112U A121G U144C: no more than -4.2. For A26U C75U G83C C103U A106G A120G U127A, the “polymerase ribozyme fitness (log ratio)” value was no more than -4.2. The figure for C27U U31A G48U C85U is -2.25; for C27G U31A G92C U104G A121C C125A A142U U145C U148A it is no more than -4.2; for A26U C27U U33A G34A U56A C57U C76A C85G G88A U127C it is no more than -4.2.

C27U A28G U53G A73G C85U G86C A120U C132U: the “polymerase ribozyme fitness (log ratio)” value was no more than -4.2. Turning to A26U A107G, the “polymerase ribozyme fitness (log ratio)” value was no more than -4.2. For the variant A26U C96U G140C, the “polymerase ribozyme fitness (log ratio)” value was no more than -4.2. The figure for C27U U55C G94U C108U is no more than -4.2; for A28G A29U G65A A73U it is no more than -4.2. The same measure for A26U U90C A97G A107U A138C: no more than -4.2. The figure for A28C C35U A49C C116U C118A is no more than -4.2. With C27G A52G C57G G71A G92U, the “polymerase ribozyme fitness (log ratio)” value is no more than -4.2. The same measure for C27A U44G U55G G62C A64C G80C C116A A137U: no more than -4.2.

As for A28C C35U G42C C76U A91U C108A A110G, the “polymerase ribozyme fitness (log ratio)” value is no more than -4.2. The figure for A28C C54G C79G C85G U145A is no more than -4.2; for C27A G86A G94A U102G C132U G133U U134A it is no more than -4.2. The figure for C27A A47G C51U U53A C75G C96A C108U C123A G143C is no more than -4.2. The figure for A26U G46U A47U G74C C79G G92U G140A is no more than -4.2; for A26U A89G it is -3.26; for C27U A39C G83A it is no more than -4.2.

For C27G U55A G74A C85A A98C A115C A122U A138G, the “polymerase ribozyme fitness (log ratio)” value was no more than -4.2. On to A26U A64U G74A C85G C118G U146G A150U, for which the “polymerase ribozyme fitness (log ratio)” value was no more than -4.2. The figure for C27G A28G C87A C105U C116U A150G is no more than -4.2; for A28G G68C C93U it is no more than -4.2. The figure for A26G G133A is no more than -4.2. The same measure for A26U U33C U55C A60C G84U C123G: no more than -4.2; for C27U C32G A64G G92C G152U: no more than -4.2.

As to A26U G81A C87U G140U A142G, the “polymerase ribozyme fitness (log ratio)” value is no more than -4.2. The figure for C27U G34C C93A G117A is no more than -4.2; for A26U C35U U55A C96G G124A it is no more than -4.2. For the variant A26G G83A G84U C96U A98C C118U, the “polymerase ribozyme fitness (log ratio)” value is no more than -4.2. Turning to A28U A29G C75G G81U C85G A106C C129A, the “polymerase ribozyme fitness (log ratio)” value was no more than -4.2. With C27A G50A C57A C72U G84U, the “polymerase ribozyme fitness (log ratio)” value was no more than -4.2.

Consider C27A A41C C96U, for which the “polymerase ribozyme fitness (log ratio)” value is no more than -4.2. In the case of C27G G50C G74U C76G, the “polymerase ribozyme fitness (log ratio)” value was no more than -4.2.

For A26U U61A C85A, the “polymerase ribozyme fitness (log ratio)” value is no more than -4.2. The figure for A28G A91C C116U A120G U127G is no more than -4.2; for C27G C36G U78C A106C C125U U130A it is no more than -4.2. The same measure for C27U C32G C36U C87G: no more than -4.2; for C27G A28U G83A A97C A121U C149G: no more than -4.2. For the variant A26U U31C A73G G83A C125A A137C G143A, the “polymerase ribozyme fitness (log ratio)” value is no more than -4.2. With A28C G88A, the “polymerase ribozyme fitness (log ratio)” value was no more than -4.2. The same measure for C27A U56A A60U A122C U144A: no more than -4.2; for A26U A37C U45A A120C G143C: no more than -4.2.

With A26U A49G C93U G124C U135G A138G, the “polymerase ribozyme fitness (log ratio)” value is no more than -4.2. As for A28U A40U U56A G68A A73G G74U U135G, the “polymerase ribozyme fitness (log ratio)” value is no more than -4.2. The same measure for A28G G46U G59A G81C G83U: no more than -4.2; for A26U A60G C69A A97U C114U U135C: no more than -4.2. As for A28G G46A C57U U82C C93U A106U G126U A142C, the “polymerase ribozyme fitness (log ratio)” value was no more than -4.2.

A26G C95U C96U: the “polymerase ribozyme fitness (log ratio)” value is -4.16. The figure for A26U G42U is no more than -4.2. Turning to A28G G50A C93A A98U U104G, the “polymerase ribozyme fitness (log ratio)” value was no more than -4.2. As to A28C A30C A40U A47C G48U A91U, the “polymerase ribozyme fitness (log ratio)” value is no more than -4.2.

Consider A28G G92U, for which the “polymerase ribozyme fitness (log ratio)” value was no more than -4.2. Turning to A28U A39G A66G C76A G81C, the “polymerase ribozyme fitness (log ratio)” value was no more than -4.2. The figure for A26U A29G G42A G50A G74U C103G U104C is no more than -4.2. Regarding C27U G92U G100A A106C G124C A138G, the “polymerase ribozyme fitness (log ratio)” value was no more than -4.2.

As to A28C C38A A49U U56A C118U, the “polymerase ribozyme fitness (log ratio)” value was no more than -4.2. C27G A40U U44A C85U C87U G126C A142U G152U: the “polymerase ribozyme fitness (log ratio)” value is no more than -4.2. In the case of A26U C118U, the “polymerase ribozyme fitness (log ratio)” value was -0.616. The same measure for A26U A47C C54A G65C C93G C99U: no more than -4.2; for A28C C96A G124A G143C: no more than -4.2; for A28C A73C U78G G86C A110U A113U A137C A138U: no more than -4.2. Turning to C27G A39U G84C G126U, the “polymerase ribozyme fitness (log ratio)” value was no more than -4.2.

As for A28C A52G C87A C103G U104G G117C A138U, the “polymerase ribozyme fitness (log ratio)” value was no more than -4.2.
